# According to PMC4336329 (PLoS ONE, 2015):
# Hit rate of the full screen: of about 310,000 compounds, about 2,200 (0.71%) showed an effect of 50% or more. The effect is printed as a negative number. The list shows a part of the results.
# Molecular target: human ether-à-go-go-related gene (hERG) potassium channel (human, UniProt Q12809)
# Experiment: primary screen, population patch clamp on CHO cells stably expressing hERG
# human ether-à-go-go-related gene (hERG) potassium channel, sequence (Q12809 whole entry, looked up): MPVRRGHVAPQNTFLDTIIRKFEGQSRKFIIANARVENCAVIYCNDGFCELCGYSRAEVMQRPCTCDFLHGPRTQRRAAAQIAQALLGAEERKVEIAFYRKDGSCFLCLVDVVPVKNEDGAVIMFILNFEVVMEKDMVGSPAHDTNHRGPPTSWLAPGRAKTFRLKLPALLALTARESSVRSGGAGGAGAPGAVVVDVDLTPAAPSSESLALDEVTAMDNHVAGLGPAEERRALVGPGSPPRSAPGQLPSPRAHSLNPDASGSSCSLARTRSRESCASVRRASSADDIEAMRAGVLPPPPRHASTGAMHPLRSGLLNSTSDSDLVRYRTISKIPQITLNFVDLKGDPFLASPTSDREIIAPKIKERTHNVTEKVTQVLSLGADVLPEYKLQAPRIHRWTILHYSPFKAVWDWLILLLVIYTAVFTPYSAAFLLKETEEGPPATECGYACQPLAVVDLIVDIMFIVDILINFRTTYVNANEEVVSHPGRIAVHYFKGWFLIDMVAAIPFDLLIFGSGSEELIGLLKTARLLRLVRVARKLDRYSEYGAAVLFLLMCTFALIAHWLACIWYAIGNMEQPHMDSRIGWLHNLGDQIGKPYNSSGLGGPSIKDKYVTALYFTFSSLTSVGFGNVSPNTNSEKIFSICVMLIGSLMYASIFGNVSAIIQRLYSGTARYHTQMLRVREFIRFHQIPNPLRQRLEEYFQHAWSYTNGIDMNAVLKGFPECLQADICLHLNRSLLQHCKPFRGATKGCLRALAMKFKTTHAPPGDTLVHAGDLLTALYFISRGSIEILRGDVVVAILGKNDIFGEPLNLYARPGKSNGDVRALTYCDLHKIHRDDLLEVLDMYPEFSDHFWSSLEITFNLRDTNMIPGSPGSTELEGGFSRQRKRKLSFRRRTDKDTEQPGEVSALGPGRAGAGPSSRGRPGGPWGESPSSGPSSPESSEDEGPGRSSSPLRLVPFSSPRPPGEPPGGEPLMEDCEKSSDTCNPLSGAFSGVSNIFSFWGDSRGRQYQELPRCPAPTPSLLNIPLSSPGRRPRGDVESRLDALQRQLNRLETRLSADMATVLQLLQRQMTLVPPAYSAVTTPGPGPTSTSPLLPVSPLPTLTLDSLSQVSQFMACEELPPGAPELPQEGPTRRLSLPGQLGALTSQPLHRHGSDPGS
row,SMILES,"hERG current change (%, negative = inhibition) at 1uM"
1,COc1ccc(OCCn2cncn2)cc1,14.3%
2,O=C1OC(NC(=O)c2ccccc2)C(N2CCOCC2)=C1Cl (centres unmarked),9.35%
3,CCOC(=O)c1[nH]c(C)c(CCC(=O)[O-])c1C.[Na+],9.86%
4,C/C(=N\NC(=O)c1nnn(-c2nonc2N)c1COc1ccc(F)cc1)c1ccc(Cl)cc1,15.3%
5,COc1cc(C(=O)Nc2cc(Cl)ccc2-n2cncn2)ccc1OC(F)F,19.2%
6,CC(C)(C)c1ccc(C(=O)N2CCN(CCNC(=O)C(=O)NCc3ccc(Cl)cc3)CC2)cc1,-1.42%
7,C=CCNCC(O)COc1ccc(C(C)=O)cc1OC.O=C(O)C(=O)O (centres unmarked),2.72%
8,CCC(=O)Nc1cccc(-c2nnc(-c3cccc(NC(=O)CC)c3)o2)c1,9.46%
9,CCOc1ccc(NC(=O)CCn2cccc2)cc1,16.7%
10,COc1ccc(Cl)cc1N1C(=O)[C@@H]2C(c3cccc(OC)c3OC)=NO[C@@H]2C1=O,11.7%
11,Nc1ccc(CNc2ncn[nH]2)cc1,7.59%
12,CC/C(=N\NC(=O)c1ccccc1)c1c(O)n(C2CCCCC2)c(=O)[nH]c1=O,6.6%
13,COC(=O)Cn1c(=NC(=O)C2COc3ccccc3O2)sc2cc(S(N)(=O)=O)ccc21 (centres unmarked),12%
14,Cc1onc(-c2c(Cl)cccc2Cl)c1C(N)=O,11%
15,Cc1nn(-c2ccc(F)cc2)c(C)c1CN1CCN(Cc2ccccc2)C(CCO)C1 (centres unmarked),-20.2%
16,NCCNc1cc(N2CCCC2)ccc1[N+](=O)[O-],2.91%
17,CN(c1ccccc1)S(=O)(=O)c1ccc(NC(=S)NC(=O)c2ccccc2)cc1,-3.05%
18,O=C(Nc1ccccc1)c1sc(N2CCOCC2)nc1-c1ccccc1,14.2%
19,CNC(=O)c1cc(C(=O)c2ccc(F)cc2Cl)c[nH]1,15.4%
20,Cc1nc2ccccn2c1-c1ccnc(SCc2ccc(Cl)cc2)n1,16%
21,O=C(Cc1ccc(Br)cc1)NC1CCSC1=O (centres unmarked),29%
22,CCC(=O)N1CCCc2cc(S(=O)(=O)N3CCC(N4CCCCC4)CC3)ccc21,11.1%
23,Cc1nn(-c2ccccc2)c(CC(C)(C)C(=O)O)c1C(=O)O,9.53%

row,SMILES,"hERG current change (%, negative = inhibition) at 1uM"
1,Brc1ccc2nc(-c3cccs3)c(NCC3CCCO3)n2c1 (centres unmarked),-0.745%
2,C(=N\N1CCOCC1)/c1ccsc1.O=P(O)(O)O,15.6%
3,C(=N\c1nccs1)/c1c[nH]c2ccccc12,14.7%
4,CCN(CC)S(=O)(=O)c1ccc(-c2cc(C(=O)OC)sc2C(F)(F)F)cc1,11.4%
5,CCN(Cc1ccccc1)C(=O)CSc1n[nH]c(N)n1,19%
6,COc1ccc(/C=C/C2=CCN(Cc3ccc(OC)cc3)CC2)cc1.Cl,-34.9%
7,CC(=O)Cc1nsc(Nc2ccc(Cl)cc2)n1,5.37%
8,O=C(COC(=O)c1cccc(S(=O)(=O)N2CCc3ccccc32)c1)Nc1ncc(C(F)(F)F)cc1Cl,15.4%
9,CCOC(=O)C1CCN(Cc2ccc(OC)cc2OC)CC1,-14.2%
10,CCN(CC)C(=O)OCCc1cc2ccccc2c(=O)o1,14.3%
11,CSCc1ccc(C(=O)NCCSc2ccc(Br)cc2)cc1,11.6%
12,CCN(CC)CCCN1C(=O)CSC1c1ccc2c(c1)OCO2.Cl (centres unmarked),-15.9%
13,Cc1ccc(N/N=C/c2c(O)cc(C)oc2=O)cc1,8.41%
14,CCOc1ccc(N=Nc2c(=O)[nH]n3c(=O)c4c([nH]c23)CCCC4)cc1,10.2%
15,COc1ccc(/C=C(/NC(=O)c2ccc([N+](=O)[O-])cc2)C(=O)NCCCN(C)C)cc1,-65.3%
16,C[C@H](NC(=O)Nc1ccccc1F)C(=O)O,10.2%
17,CCn1cnc2c1c(=O)n(CC(=O)OC(C)C(N)=O)c(=O)n2Cc1ccccc1 (centres unmarked),7.63%
18,C/C(=N\NC(=O)CSCc1ccccc1Cl)c1cccc(NC(=O)c2ccccc2)c1,9.15%
19,CC(C)c1nc2sc3c(=S)nc[nH]c3c2c2c1CCC2,11.6%
20,Cc1cc(C(=O)OCC(=O)Nc2cc(C(F)(F)F)ccc2N2CCOCC2)c(C)o1,10.6%
21,COC(=O)C1=C(c2ccc(Cl)c(C(F)(F)F)c2)C[C@@H]2CC[C@H]1N2C(=O)NCc1ccc2c(c1)OCO2,5.8%
22,CC1=C(C(=O)OC2CCCCCC2)C(c2ccc(C)o2)C2=C(CCCC2=O)N1 (centres unmarked),13.4%
23,Cc1ccc2nc(SCC(=O)NCc3ccccc3Cl)nc(=O)n2c1,12.8%

row,SMILES,"hERG current change (%, negative = inhibition) at 1uM"
1,Cc1nc2nc[nH]n2c(=O)c1NS(=O)(=O)c1ccc(C(C)(C)C)cc1,12.5%
2,N#Cc1ccccc1NC(=O)CSc1nnc(-c2ccncc2)o1,21.1%
3,O=C(NCCC1=CCCCC1)C(=O)NCCc1ccc(Cl)cc1,8.52%
4,C=CCNS(=O)(=O)c1cccc(C(C)=O)c1,9.26%
5,C=CCNC(=S)Nc1cc(S(=O)(=O)N2CCOCC2)ccc1-n1cncn1,-0.865%
6,CCSC1=NC(C)(C)C=C(/C=C/c2ccc(Cl)cc2Cl)N1,8.53%
7,O=C(Nc1ccccc1N1CCOCC1)c1ccc(Cl)nc1,4.19%
8,O=C(NCSc1ccnc(SCNC(=O)c2ccc(F)cc2)n1)c1ccc(F)cc1,10.2%
9,O=C(COc1ccccc1Br)N1CCN(c2ccccc2)CC1,-3.28%
10,CC(=O)N/C(=C/c1ccc2c(c1)OCO2)C(=O)NCCCO,15.9%
11,COc1ccc(C(=O)C2CCCN(C/C=C/c3ccccc3OC)C2)c(OC)c1 (centres unmarked),-78.6%
12,COc1ccccc1C(=O)NCCn1cc(SCC(=O)NCC2CCCO2)c2ccccc21 (centres unmarked),5.23%
13,Cc1cc(Cl)ccc1NC(=O)Cn1cncn1,7.54%
14,O=C(COc1ccc2ccccc2c1)Nc1ccncc1,-3.41%
15,NS(=O)(=O)c1ccc(-c2ccc(/C=C3\C(=O)Nc4ccccc43)o2)cc1,13.5%
16,CCc1c(C(=O)NC2CCCc3ccccc32)[nH]c(C)c1C(C)=O (centres unmarked),10.6%
17,CC(C)CCN1CCN(Cc2cccn2-c2ccc(Cl)cn2)CC1CCO (centres unmarked),-47.6%
18,C/C(N)=C(/C#N)C(=O)CSc1nnnn1-c1ccc(C)cc1,-3.45%
19,CC(C(=O)NC(c1ccccc1)c1ccccc1)N1CCOCC1 (centres unmarked),-2.2%
20,CCOc1ccc(-c2cc3cc(OC)c(OC)cc3c(C)n2)cc1,9.43%
21,O=c1[nH]c2ccccc2c(=O)n1-c1cccc(Cl)c1,7.15%
22,COc1cccc(CC2(CO)CCN(CC3=CC[C@H]4C[C@@H]3C4(C)C)CC2)c1,1.62%
23,Cl.O=C(CCN1CCCCC1)Nc1cccc(Cl)c1,-1.31%

row,SMILES,"hERG current change (%, negative = inhibition) at 1uM"
1,CC1CC(C)(C)NC(=O)O1 (centres unmarked),-4.12%
2,O=C1C2C3c4ccccc4C(c4ccccc43)C2C(=O)N1c1nc(-c2ccccc2)cs1 (centres unmarked),12.8%
3,O=C1CCC(C(=O)OC(C(=O)c2c[nH]c3ccccc23)c2ccccc2)=NN1 (centres unmarked),10.1%
4,O=C(C(=O)N1CCOCC1)c1cn(CC(=O)N2CCc3ccccc3C2)c2ccccc12,-3.42%
5,Cc1ccnc(N/C=C(/NC(=O)c2ccccc2)C(=O)NN)n1,6.61%
6,Cc1cccc(NC(=S)Nc2ccc(Br)cc2)c1,5.8%
7,CCOc1cc(S(=O)(=O)N2CCCC2)ccc1Cl,2.75%
8,CCOc1ccc(S(=O)(=O)/N=C(/c2ccccc2)N(C)C)cc1,14%
9,Cc1c(C(=O)N(C)C)c2cc(Cl)ccc2n1O,12.5%
10,CNC(=O)c1cc2ncc(C(F)(F)F)cc2s1,17.8%
11,Cc1cccc(-c2c(O)cc(=O)[nH]c2Cl)c1,12.7%
12,CCCNC(=O)Nc1nccs1,14.3%
13,CCN(CC)S(=O)(=O)c1ccc2oc(Nc3ccc(OC)cc3OC)nc2c1,8.04%
14,CC(C)Cn1c(=O)[nH]c2ccccc21,3.82%
15,Cc1cc(-c2n[nH]c(=S)n2/N=C/c2sccc2C)n[nH]1,5.14%
16,COc1ccc(C(=O)NCCn2cc(SCC(=O)NCC3CCCO3)c3ccccc32)cc1OC (centres unmarked),2.39%
17,Cc1nc2ccccc2c(=O)n1CCc1ccc(O)cc1,11.3%
18,O=c1c(O)c(-c2cccs2)oc2ccccc12,1.67%
19,COc1ccc(CN(C)S(=O)(=O)c2nnc(NC(=O)c3ccccc3Br)s2)cc1,9.17%
20,O=C(O)c1ccc(NC(=O)C2CCCCC2)cc1,-0.767%
21,COC(=O)c1c(C(=O)OC)c2cccc3cc(-c4ccccc4)c4ccc1c4n32,12.9%
22,CC(=O)c1ccc(N2CCN(CC(=O)Nc3ccccc3C(=O)NC3CC3)CC2)c(F)c1,-5.91%
23,CCCc1c(C(=O)NNc2cc(C(F)(F)F)ccc2Cl)cnn1-c1ccccc1,16.6%
